Test results reported in the supplement of paper PMC11865577.

How the values were obtained:
Experiment in all cases: pull-down binding Z-score (relative to library population); higher = stronger binding
[1] = system: G-clamp-N3 (biotin conjugate); settings: RNA library: Library-1 (pre-miRNA loops + repeats)
How it was run: (§1)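 The RNA library, end-labelled with Cy5 or Cy3, was heat-folded in phosphate/NaCl/KCl buffer, and 1 μg was incubated at 25 °C for 60 min with streptavidin beads carrying 100 pmol of biotin-conjugated small molecule. Hot SDS released the bound RNA, which was then hybridised to a DNA barcode microarray for 20 h at 55.5 °C. For scoring binding, signal from beads alone was subtracted, replicate barcoded probes were averaged after discarding the highest and lowest, and each value was turned into a Z-score from the library mean and standard deviation.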

[2] = system: TO-N3-2 (biotin conjugate); settings: RNA library: Library-2
How it was run: as §1

[3] = system: TO-3-N3 (biotin conjugate); settings: RNA library: Library-2
How it was run: as §1

[4] = system: TO-3-N3-2 (biotin conjugate); settings: RNA library: Library-2
How it was run: as §1

TO-N3 (biotin conjugate) = settings: RNA library: Library-2
How it was run: as §1

Sequence | pull-down binding Z-score [1] | further results
AUUGCACUCC [U1A] | -1.23 | –
GGGUGGGUGGGUGGGUGGGUGGGU [G4_(GGGU)6] | 2.56 | –
GGGUGGGUGGGUGGGUGGGUGGGUGGGUGGGU [G4_(GGGU)8] | 2.08 | –
GGGUUGGGUUGGGUUGGGUUGGGUUGGGUU [G4_(GGGUU)6] | 2.27 | –
GGGUUGGGUUGGGUUGGGUUGGGUUGGGUUGGGUUGGGUU [G4_(GGGUU)8] | 0.567 | –
GGGUUUAAUUACGAAAGUAAUUGGAUCC [Disney2016_Control_RNAC] | 0.674 | –
GGGUUUACGAACGAAAGUUGGUGGAUCC [Disney2016_Control_RNA2] | 0.361 | –
GGGUUUACGAUUUACGAAAGUAAAUUGUGGAUCC [Disney2016_Control_RNA5] | -0.323 | –
GGGUUUACGAUUUACGAAAGUAUAUCGUGGAUCC [Disney2016_Control_RNA4] | 0.973 | –
GGGUUUACGAUUUACGAAAGUAUAUGGUGGAUCC [Disney2016_Control_RNA3] | 0.7 | –
GGGUUUAUUUACGAAAGUAUAUGGAUCC [Disney2016_Control_RNA1] | 0.172 | –
UUGCCAUGUGUAUGUGGGACACCCCACAUACUUUGUUGAUCCACACGGAUCAAUCAUGGCAA [3-way model-4_mPhi29pRNA] | – | pull-down binding Z-score [2]: -1.11; pull-down binding Z-score [3]: -0.728; pull-down binding Z-score [4]: -0.583; pull-down binding Z-score (TO-N3 (biotin conjugate)): -1
